“And” between values parts separate entries of the source, which are not always exact repeats. Identical values can stand only once. Among all 48,000 compounds or so, about 1,200 (2.5%) were called active. Roughly 2% stayed inconclusive and do not appear here.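 How the source made its calls: active means activation of at least 60% and not above a set upper limit (about 1 call in 100 departs from these limits); inconclusive means activation of 40% to 60%, or above that upper limit; inactive means activation under 40%.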 The list shows a part of the results.
These compounds were tested against Probable G-protein coupled receptor 32 (Homo sapiens) (UniProt O75388) (assay: qHTS for Agonists of Human Resolvin D1 Receptor DRV1). Details: CHO-K1 GPR32 beta-arrestin PathHunter luminescence, 90 min; at 76.9 µM; active compounds read high; zero percent set by DMSO-only wells.
Procedure, shortened: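 GPR32 activation in stably transfected CHO-K1 cells, detected as beta-arrestin recruitment by enzyme-fragment complementation. Compound exposure: 90 min, 37 °C.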
Further: 0% is about no effect.

Chain of UniProt O75388 (O75388 whole entry, looked up, the tested form may be a part): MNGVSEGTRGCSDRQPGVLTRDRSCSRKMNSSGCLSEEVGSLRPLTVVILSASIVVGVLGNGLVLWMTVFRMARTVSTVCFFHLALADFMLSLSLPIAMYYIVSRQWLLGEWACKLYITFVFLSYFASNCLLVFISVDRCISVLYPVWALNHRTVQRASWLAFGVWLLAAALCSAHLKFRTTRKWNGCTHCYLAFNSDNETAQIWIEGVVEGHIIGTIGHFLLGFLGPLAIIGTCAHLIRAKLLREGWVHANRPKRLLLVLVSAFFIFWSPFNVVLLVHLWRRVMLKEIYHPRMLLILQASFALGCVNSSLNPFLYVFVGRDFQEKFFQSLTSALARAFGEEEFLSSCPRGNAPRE

Compound	activation
COc1ccc(C2C=C(c3ccccc3)Nc3nc(NC(=O)c4ccc(C)cc4)nn32)cc1 (configuration not stated)	inactive: 0.122%
Cc1cc(C)cc(N(CC(=O)Nc2cccc(C)c2C)S(=O)(=O)c2c(C)[nH]c(=O)[nH]c2=O)c1	inactive: -1.16%
Cc1cccc(CCNC(=O)c2cc3ccccn3n2)c1	active: 101%
COc1ccc(Cl)cc1NC(=O)Cn1c2ncccc2c(=O)n1-c1ccc(C)c(C)c1	inactive: -4.65%
CCOc1cc(-c2nc(-c3ccc(-c4ccc(C)cc4)nc3OC)no2)cc(OCC)c1OCC	inactive: 3.75%
COC(=O)c1ccc(Cl)cc1NC(=O)N1CC(C)Oc2ccccc21 (configuration not stated)	inactive: -34.6%
Cc1ccc(-n2nc3c(=O)n(CC(=O)Nc4ccccc4F)nc(C)c3c2C)c(C)c1	inactive: -13.3%
Cc1cc(NS(=O)(=O)c2ccc(NC(=O)COc3ccc(Cl)cc3)cc2)nc(C)n1	inactive: 9.65%
Cc1ccc(NC(=O)Nc2nnc(N(C)Cc3ccccc3)s2)cc1	inactive: -10.8%
CCOC(=O)c1noc2ncnc(N(CCC(=O)OC)c3ccccc3)c12	inactive: 8.23%
CCOC(=O)c1noc2ncnc(Nc3ccc(C)c(F)c3)c12	inactive: 1.99%
CN1CCN(CCCNC(=O)Cn2c(-c3cccs3)cc3ccccc32)CC1	inactive: 14%
Cc1ccc2c(c1)sc1nc(=O)n(-c3ccc(Cl)cc3)c(=O)n12	inactive: 16.8%
COc1ccc(OC)c(C2CC(=O)c3c([nH]c(C(=O)OC4CCC(C)CC4)c3C)C2)c1 (configuration not stated)	inactive: -12%
COc1cc(NC(=O)c2cc(-c3ccc4c(c3)OCO4)on2)cc(OC)c1OC	inactive: 34%
COc1ccc(-c2cc(C)no2)cc1S(=O)(=O)NCc1ccc(OC(C)C)cc1	inactive: -8.01%
COc1ccc(N2CCN(CCCNC(=O)C3COc4ccc(OC)cc4C3)CC2)cc1 (configuration not stated)	inactive: -11.7%
CCc1cccc2c(-c3ccccc3)nc(SCC(=O)Nc3ccccc3)nc12	inactive: -12.4%
COc1ccc2c(CNCc3ccc(Cl)cc3)c(C(=O)O)n(Cc3ccccc3C)c2c1	inactive: -8.47%
Cc1cccc(Nc2nnc(-n3nc(C)cc3C)c3ccccc23)c1	inactive: 2.33%
O=C(Cn1cc(SCc2ccc(C(F)(F)F)cc2)c2ccccc21)N1CCCCC1	inactive: -26.1%

Compound	activation
CC(CC(=O)NCc1ccc(Cl)cc1)CC1=NS(=O)(=O)c2ccccc2N1 (configuration not stated)	inactive: 2.96%
COc1ccc(NC(=O)c2cnn(-c3ccc(C)cc3)c2-n2cccc2)cc1Cl	inactive: -17.3%
Cc1c(-c2nsc(NC(=O)c3ccc(Cl)cc3)n2)nnn1-c1ccc(C(C)C)cc1	inactive: 1.46%
CC(=O)c1ccc(N2CCN(c3nc4c(S(=O)(=O)c5ccccc5)nnn4c4ccc(Cl)cc34)CC2)cc1	inactive: -5.7%
COc1ccc(S(=O)(=O)c2cn(C)c3cc(N4CCCCC4)c(F)cc3c2=O)cc1	inactive: 1.86%
O=C(NC1CC(=O)N(c2ccccc2)C1)C1CCCCC1 (configuration not stated)	inactive: 2.87%
Cc1cc(Br)ccc1NC(=O)c1cc2c(=O)n(C)c3cc(Cl)ccc3c2s1	inactive: 15.4%
Cc1cc(C)cc(NC(=O)CSc2nccn2-c2ccccc2)c1	inactive: -6.13%
Cc1cccc2nc(-c3cccnc3)c(Nc3ccc(C(C)C)cc3)n12	active: 61.3%
COc1ccc(NC(=O)C2=C(C)Nc3nc(SCc4ccccc4C)nn3C2c2ccc(Br)cc2)cc1 (configuration not stated)	inactive: 2.9%
NCCCC[C@H](N[C@@H](CCc1ccccc1)C(=O)O)C(=O)N1CCC[C@H]1C(=O)O	inactive: 20%
Cc1cccc(NC(=O)C2CCN(S(=O)(=O)c3cccc4nsnc34)CC2)c1C	inactive: 10.2%
Cc1ccc(-c2noc(CNC(=O)c3ccc(C(C)(C)C)cc3)n2)cc1	inactive: -14.9%
COC(=O)c1cc2oc3ccccc3c2n1CC(=O)Nc1ccc(OC)c(OC)c1OC	inactive: -3.86%
COc1ccccc1CNC(=O)CN1C(=O)CSc2ccc(S(=O)(=O)N3CCCC3)cc21	inactive: -25.1%
c1ccc2c(c1)CCC[C@H]2Nc1nc2ccccc2[nH]1	inactive: 6.6%
CC(C)Oc1ccc(CNC(=O)C2CCN(C(=O)c3sccc3-n3cccc3)CC2)cc1	inactive: -12.1%
CC(C)OCCCN(Cc1ccco1)C(=O)c1cc2c(s1)-c1ccccc1OC2	inactive: 19.7%
COCc1cc(C)n(CC(=O)Nc2ccc(NC(C)=O)cc2)c(=O)c1C#N	inactive: 4.96%
CCN(CC)C(=O)Cn1cc(SCC(=O)Nc2cccc(C)c2)c2ccccc21	inactive: -16.9%
CC1=C(C#N)C(NC(=O)c2cccc(Cl)c2)(C(F)(F)F)C(=O)N1 (configuration not stated)	inactive: -29.4%

Compound	activation
COc1ccccc1-c1noc(-c2ccc(N3CCN(c4ccccc4)CC3)c([N+](=O)[O-])c2)n1	inactive: 6.98%
COc1ccc(N2CCN(c3cc(C)nc4nc(-c5ccc(C)cc5)nn34)CC2)cc1	inactive: -1.02%
Cc1cccc(C(=O)N2CCc3cc(CNC(=O)CCc4ccccc4)ccc32)c1	inactive: -6.09%
Cc1ccc(Cl)cc1NC(=O)N1CCN(C)c2ncccc21	inactive: -3.94%
Cc1ccc(S(=O)(=O)c2cn(C)c3cc(N4CCN(C)CC4)c(F)cc3c2=O)cc1	inactive: -0.155%
O=C(CSc1ncc2c(n1)-c1ccccc1N(Cc1ccc(F)cc1)S2(=O)=O)c1ccc(Cl)cc1	inactive: -3.02%
CCc1cc2c(cc3c(=O)n(CC(=O)N4CCN(c5cc(Cl)ccc5C)CC4)ncn32)s1	inactive: 6.02%
CCOCCOC(=O)c1ccc(NC(=O)/C=C/c2ccc(OC)c(OC)c2)cc1	inactive: 12.1%
COc1ccc(Nc2c(-c3cc(Br)ccc3O)nc3ncccn23)cc1OC	inactive: -32.2%
COc1ccccc1C(=O)Nc1cc2c(cc1N1CCCCC1)n(C)c(=O)n2C	inactive: -4.37%
Cc1cccc(C)c1-n1ncc(C(=O)Nc2ccc3c(c2)OCCO3)c1C1CCN(C(=O)OC(C)(C)C)CC1	inactive: -3.35%
Cc1ccc(NCc2cccn2-c2nnc(N3CCC(C(=O)NCc4ccc(OC(C)C)cc4)CC3)s2)cc1	inactive: -25.8%
CNS(=O)(=O)c1ccc(OC)c(-c2nnc3c4ccccc4c(C)nn23)c1	inactive: -4.53%
COc1ccccc1N1CCN(S(=O)(=O)c2c(C)sc3ncn(CC(=O)N(C)c4ccc(C(C)C)cc4)c(=O)c23)CC1	inactive: -16.6%
COc1ccccc1N1CCN(C(=O)Cn2ncc3c(=O)oc4ccccc4c32)CC1	inactive: 16.9%
Cc1cccc(N2CCN(S(=O)(=O)c3ccc4c(c3)CCCN4C(=O)C3CCC3)CC2)c1C	inactive: -25.3%
C[C@]12CCC(=O)C=C1CC[C@@H]1[C@@H]2[C@@H](O)C[C@@]2(C)[C@H]1CC[C@]2(O)C(=O)COC(=O)CCC(=O)O	inactive: 23.6%
CCN(CC)c1ccc(NC(=O)C(Cc2ccccc2)NS(=O)(=O)c2ccc(Br)s2)c(C)c1 (configuration not stated)	inactive: -8.62%
O=C(Nc1ccc(C(=O)OCc2cc(=O)n3nc(C4CC4)sc3n2)cc1)c1ccc(F)cc1	inactive: -16.4%
Cc1nc(N2CCCC2)c2c(C(=O)Nc3cccc(C)c3C)c(C)oc2n1	inactive: -8.79%
O=C(Nc1cccc(Cl)c1)c1c(NC(=O)C(F)(F)F)sc2c1CCCC2	inactive: 37.2%

Compound	activation
CC(=O)Nc1cccc(NC(=O)Cn2cnc3c2c(=O)n(C)c(=O)n3C)c1	inactive: 15.1%
COc1ccc(CCNCc2c(C(=O)O)c(C)n(Cc3ccccc3C)c2C)c(OC)c1	inactive: -31.8%
CC(C)(C)NC[C@H](O)COc1nsnc1N1CCOCC1	inactive: -5.92% and inactive: -2.75%
COc1cc(OC)c(NC(=O)COCc2cc(-c3cccs3)on2)cc1Cl	inactive: -13.9%
CCOc1ccccc1N(C)C(=O)Cn1cnc2sc(C)c(S(=O)(=O)N3CCC(C)CC3)c2c1=O	inactive: -4.11%
COc1ccc(S(=O)(=O)N(CC(=O)NCc2ccccc2OC)c2ccc(C)cc2)cc1	inactive: -33.3%
COc1ccccc1CCNC(=O)CCc1c(C)c2cc3c(C)coc3c(C)c2oc1=O	inactive: -12.9%
CN(C)CCN(Cc1ccco1)S(=O)(=O)c1cc2c(cc1Cl)NC(=O)CO2	inactive: -6.01%
Cc1nn(CCCC(=O)Nc2ccccc2C(F)(F)F)c(=O)c2c1sc1ccccc12	inactive: -3.94%
Cc1cn2c(=O)cc(COc3ccc(NC(=O)c4cccc(F)c4)cc3)nc2s1	inactive: 3.71%
O=C(Cn1c(=O)n(Cc2ccco2)c(=O)c2oc3ccccc3c21)Nc1ccc(F)cc1F	inactive: -12%
CCC(Sc1nnc(C)n2c1cc1occc12)C(=O)Nc1ccccc1F (configuration not stated)	inactive: -19.3%
COc1cccc(NC(=O)Nc2cc(-c3cn4cccnc4n3)ccc2C)c1	inactive: 32.8%
Cn1c(=O)n(C)c2cc(NS(=O)(=O)c3ccccc3)c(NCc3ccccc3)cc21	inactive: -15.5%
O=C(NCCO)C(=O)Nc1c2c(nn1-c1ccc(F)cc1)CSC2	inactive: -19.5%
CCS(=O)(=O)N1CC(=O)N(c2cccc(Cl)c2C)C(C)(C(=O)NC2CCCCC2)C1 (configuration not stated)	inactive: -7.28%
CCCN(c1ccccc1CC)S(=O)(=O)c1ccc2c(c1)CC(C)N2C(=O)C1CC1 (configuration not stated)	inactive: -20.2%
CCCc1c(OCCCCc2nn[nH]n2)ccc(C(C)=O)c1O	active: 86.6%
CCN(CCCNC(=O)c1cc2cc3ccc(C)cc3nc2s1)c1ccccc1	inactive: 5.51%

From PubChem BioAssay AID1346428 (National Center for Advancing Translational Sciences (NCATS), 2018)
